# Laboratory results published in paper PMC9911399, “Two distinct binding modes provide the RNA-binding protein RbFox with extraordinary sequence specificity”.
# Numbering of substitutions follows the chain as printed; changes in the protein carry UniProt numbers. This is one part of the list.
# T1: RBFOX1 RRM (Homo sapiens, UniProt Q9NWB1 109-208)
# T1 sequence: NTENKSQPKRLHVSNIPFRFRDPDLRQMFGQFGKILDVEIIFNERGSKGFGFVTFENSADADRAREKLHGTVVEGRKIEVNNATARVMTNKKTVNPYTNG
# B1: CUACAAG (DNA:RNA)
# RNA: GGGAGACCGGAAUUCAGAUUGUCCCUACAAGUUAAAUCCCGUCGUAGCCACCA
# DNA 1: CAATCTGAATTCCGGTCTCCC
# DNA 2: TGGTGGCTACGACGGGATT
# B2: ACAGCUA (DNA:RNA)
# RNA: B1 RNA with C25A, U26C, C28G, A29C, A30U, G31A
# DNA 1: CAATCTGAATTCCGGTCTCCC
# DNA 2: TGGTGGCTACGACGGGATT
# B3: CCAAGAU (DNA:RNA)
# RNA: B1 RNA with U26C, C28A, A29G, G31U
# DNA 1: CAATCTGAATTCCGGTCTCCC
# DNA 2: TGGTGGCTACGACGGGATT
# B4: GGAAGUA (DNA:RNA)
# RNA: B1 RNA with C25G, U26G, C28A, A29G, A30U, G31A
# DNA 1: CAATCTGAATTCCGGTCTCCC
# DNA 2: TGGTGGCTACGACGGGATT
# B5: AAUUAAA (DNA:RNA)
# RNA: B1 RNA with C25A, U26A, A27U, C28U, G31A
# DNA 1: CAATCTGAATTCCGGTCTCCC
# DNA 2: TGGTGGCTACGACGGGATT
# B6: GUUGCGU (DNA:RNA)
# RNA: B1 RNA with C25G, A27U, C28G, A29C, A30G, G31U
# DNA 1: CAATCTGAATTCCGGTCTCCC
# DNA 2: TGGTGGCTACGACGGGATT
# B7: GACACCA (DNA:RNA)
# RNA: GGGAGACCGGAAUUCAGAUUGUCCGACACCAUUAAAUCCCGUCGUAGCCACCA
# DNA 1: CAATCTGAATTCCGGTCTCCC
# DNA 2: TGGTGGCTACGACGGGATT
# B8: CUCCUCG (DNA:RNA)
# RNA: B1 RNA with A27C, A29U, A30C
# DNA 1: CAATCTGAATTCCGGTCTCCC
# DNA 2: TGGTGGCTACGACGGGATT
# B9: GAUAUGU (DNA:RNA)
# RNA: B7 RNA with C27U, C29U, C30G, A31U
# DNA 1: CAATCTGAATTCCGGTCTCCC
# DNA 2: TGGTGGCTACGACGGGATT
# B10: UGCACCG (DNA:RNA)
# RNA: B7 RNA with G25U, A26G, A31G
# DNA 1: CAATCTGAATTCCGGTCTCCC
# DNA 2: TGGTGGCTACGACGGGATT
# B11: GCCUUUG (DNA:RNA)
# RNA: B7 RNA with A26C, A28U, C29U, C30U, A31G
# DNA 1: CAATCTGAATTCCGGTCTCCC
# DNA 2: TGGTGGCTACGACGGGATT
# B12: GAGCUGU (DNA:RNA)
# RNA: B7 RNA with C27G, A28C, C29U, C30G, A31U
# DNA 1: CAATCTGAATTCCGGTCTCCC
# DNA 2: TGGTGGCTACGACGGGATT
# B13: CAAAUGA (DNA:RNA)
# RNA: B7 RNA with G25C, C27A, C29U, C30G
# DNA 1: CAATCTGAATTCCGGTCTCCC
# DNA 2: TGGTGGCTACGACGGGATT
# B14: CGUGUCG (DNA:RNA)
# RNA: B1 RNA with U26G, A27U, C28G, A29U, A30C
# DNA 1: CAATCTGAATTCCGGTCTCCC
# DNA 2: TGGTGGCTACGACGGGATT
# B15: AGGACUU (DNA:RNA)
# RNA: B7 RNA with G25A, A26G, C27G, C30U, A31U
# DNA 1: CAATCTGAATTCCGGTCTCCC
# DNA 2: TGGTGGCTACGACGGGATT
# B16: GUAUCAU (DNA:RNA)
# RNA: B1 RNA with C25G, C28U, A29C, G31U
# DNA 1: CAATCTGAATTCCGGTCTCCC
# DNA 2: TGGTGGCTACGACGGGATT
# B17: AUAUUCA (DNA:RNA)
# RNA: B1 RNA with C25A, C28U, A29U, A30C, G31A
# DNA 1: CAATCTGAATTCCGGTCTCCC
# DNA 2: TGGTGGCTACGACGGGATT
# B18: AGUACAA (DNA:RNA)
# RNA: B7 RNA with G25A, A26G, C27U, C30A
# DNA 1: CAATCTGAATTCCGGTCTCCC
# DNA 2: TGGTGGCTACGACGGGATT
# B19: CUCCAGG (DNA:RNA)
# RNA: B1 RNA with A27C, A30G
# DNA 1: CAATCTGAATTCCGGTCTCCC
# DNA 2: TGGTGGCTACGACGGGATT
# B20: GGGGGCA (DNA:RNA)
# RNA: B7 RNA with A26G, C27G, A28G, C29G
# DNA 1: CAATCTGAATTCCGGTCTCCC
# DNA 2: TGGTGGCTACGACGGGATT
# B21: CUGCGGA (DNA:RNA)
# RNA: B1 RNA with A27G, A29G, A30G, G31A
# DNA 1: CAATCTGAATTCCGGTCTCCC
# DNA 2: TGGTGGCTACGACGGGATT
# B22: AGCCAGG (DNA:RNA)
# RNA: B1 RNA with C25A, U26G, A27C, A30G
# DNA 1: CAATCTGAATTCCGGTCTCCC
# DNA 2: TGGTGGCTACGACGGGATT
# B23: GAAUUCC (DNA:RNA)
# RNA: B7 RNA with C27A, A28U, C29U, A31C
# DNA 1: CAATCTGAATTCCGGTCTCCC
# DNA 2: TGGTGGCTACGACGGGATT
# B24: AACACAG (DNA:RNA)
# RNA: B7 RNA with G25A, C30A, A31G
# DNA 1: CAATCTGAATTCCGGTCTCCC
# DNA 2: TGGTGGCTACGACGGGATT
# B25: CGAUCCA (DNA:RNA)
# RNA: B7 RNA with G25C, A26G, C27A, A28U
# DNA 1: CAATCTGAATTCCGGTCTCCC
# DNA 2: TGGTGGCTACGACGGGATT
# B26: AUGCAAC (DNA:RNA)
# RNA: B1 RNA with C25A, A27G, G31C
# DNA 1: CAATCTGAATTCCGGTCTCCC
# DNA 2: TGGTGGCTACGACGGGATT
# B27: CUAGGCA (DNA:RNA)
# RNA: B1 RNA with C28G, A29G, A30C, G31A
# DNA 1: CAATCTGAATTCCGGTCTCCC
# DNA 2: TGGTGGCTACGACGGGATT
# B28: UGCCAUU (DNA:RNA)
# RNA: B1 RNA with C25U, U26G, A27C, A30U, G31U
# DNA 1: CAATCTGAATTCCGGTCTCCC
# DNA 2: TGGTGGCTACGACGGGATT
# B29: GGGCUAU (DNA:RNA)
# RNA: B1 RNA with C25G, U26G, A27G, A29U, G31U
# DNA 1: CAATCTGAATTCCGGTCTCCC
# DNA 2: TGGTGGCTACGACGGGATT
# B30: UGACCUU (DNA:RNA)
# RNA: B1 RNA with C25U, U26G, A29C, A30U, G31U
# DNA 1: CAATCTGAATTCCGGTCTCCC
# DNA 2: TGGTGGCTACGACGGGATT
# B31: CUCUAUA (DNA:RNA)
# RNA: B1 RNA with A27C, C28U, A30U, G31A
# DNA 1: CAATCTGAATTCCGGTCTCCC
# DNA 2: TGGTGGCTACGACGGGATT
# Target: T1, RBFOX1 RRM
# Experiment: EMSA; HiTS-Eq, 1 nM pool, 10 min; buffer printed only for the single-RNA assays: 10 mM Tris pH 7.5, 150 mM NaCl, 3.4 mM EDTA, 0.001% NP-40, 30 C
# Details: tags: His6 N-terminal (pET28a); label: 5' 32P
# Outline: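 Purified RbFox RRM (wild type or mutant) was equilibrated for 10 min in 50 µL with 1 nM of a 5′-radiolabelled pool of RNA with 7 randomized nucleotides, its flanks annealed to DNA oligonucleotides, across increasing protein concentrations. Free RNA was separated by 8% native PAGE, excised, reverse-transcribed, PCR-barcoded and sequenced on an Illumina HiSeq 2500. Relative association constants came from read-count changes of each variant against the control reaction, normalised to the cognate motif.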
row,Binder,binding signal
1,B1,0.0081 KA relative to UGCAUGU
2,B2,0.001 KA relative to UGCAUGU
3,B3,0.00318 KA relative to UGCAUGU
4,B4,0.00756 KA relative to UGCAUGU
5,B5,0.00163 KA relative to UGCAUGU
6,B6,0.0215 KA relative to UGCAUGU
7,B7,0.000298 KA relative to UGCAUGU
8,B8,0.00544 KA relative to UGCAUGU
9,B9,0.0112 KA relative to UGCAUGU
10,B10,0.0145 KA relative to UGCAUGU
11,B11,0.0186 KA relative to UGCAUGU
12,B12,0.0144 KA relative to UGCAUGU
13,B13,0.00405 KA relative to UGCAUGU
14,B14,0.0131 KA relative to UGCAUGU
15,B15,0.0188 KA relative to UGCAUGU
16,B16,0.00999 KA relative to UGCAUGU

row,Binder,binding signal
1,B17,0.0026 KA relative to UGCAUGU
2,B18,0.00158 KA relative to UGCAUGU
3,B19,0.00898 KA relative to UGCAUGU
4,B20,0.0303 KA relative to UGCAUGU
5,B21,0.0128 KA relative to UGCAUGU
6,B22,0.0168 KA relative to UGCAUGU
7,B23,0.00183 KA relative to UGCAUGU
8,B24,0.00255 KA relative to UGCAUGU
9,B25,0.00223 KA relative to UGCAUGU
10,B26,0.00789 KA relative to UGCAUGU
11,B27,0.0123 KA relative to UGCAUGU
12,B28,0.0092 KA relative to UGCAUGU
13,B29,0.00586 KA relative to UGCAUGU
14,B30,0.0113 KA relative to UGCAUGU
15,B31,0.0022 KA relative to UGCAUGU
